# Results taken from patent EP4814014A1, “BINDING MOLECULE AND ANTIBODY-DRUG CONJUGATE AND USE THEREOF” (priority 2023, dated 2025).
# Columns and labels:
# EBC-1 CDX = assay: In vivo efficacy, EBC-1 CDX model; design: species or system BALB/c nu/nu mice; conditions: day 36 after administration
# EBC-1 = assay: Cell killing assay of ADCs (CCK8), EBC-1; format: cell-based, human; conditions: Table 10B; Target cell: EBC-1
# NCI-H1975 [1] = assay: Cell killing assay of ADCs (CCK8), NCI-H1975; format: cell-based, human; conditions: Table 10B; Target cell: NCI-H1975
# NCI-H1975 CDX = assay: In vivo efficacy, NCI-H1975 CDX model; design: species or system BALB/c nu/nu mice; conditions: at the same dose; versus AZD9592 and ABBV399
# SW48 CDX = assay: In vivo efficacy, SW48 CDX model; design: species or system BALB/c nu/nu mice; conditions: at the same dose; versus AZD9592 and ABBV399
# NCI-H1975 [2] = assay: FACS binding of ADCs to NCI-H1975; format: cell-based, human; conditions: ADC, 200 nM or 40 nM, 5-fold diluted; FIG. 17
# CDX models = assay: In vivo efficacy of ADCs in CDX mouse models (overall); design: species or system BALB/c nu/nu mice; conditions: SW48, FADU, EBC-1 and NCI-H1975 CDX models; single i.v. dose; FIG. 23
# MDA-MB-468 = assay: FACS binding of ADCs to MDA-MB-468; format: cell-based; conditions: ADC, 200 nM or 40 nM, 5-fold diluted; FIG. 17
# FADU CDX = assay: In vivo efficacy, FADU CDX model; design: species or system BALB/c nu/nu mice; conditions: at the same dose; versus AZD9592 and ABBV399
molecule,measurement,setting,value
"V-23-Fc-Gluc-Exd (bispecific antibody, Mal-Gly-Exatecan-D-glucuronic acid on cysteine, average DAR 4.0 for the whole molecule; positions not given, also called V-23-Fc-Glu-Exd) chain 1: EVQLLESGGGLVQPGGSLRLSCAASGLTFSYYAMAWFRQAPGKEREFVAAINWNQGNTYNTDSVKGRFTISRDNSKNTVYLQMNSLTPEDTAVYYCAVRYNQASYLVARSSDYNYWGQGTLVTVSS[human IgG1 Fc with changes not printed] chain 2: QSQLVESGGGLVKPGGSLRLSCVASGFTISRSIMSWYRQAPGKERDWVASIGSAGNTNYVDSVKGRFTISRDNAKNSLYLQMNSLRAEDTAVYYCKTTLAVSFSEYWGQGTLVTVSSGGGGSGGGGSEVQLVESGGGLVQPGGSLRLSCTASGNIFSSYHMGWFRQAPGKQREFIAYITTREITNYADSVKGRFTISRDNSKNTLYLQMNSLRAEDTAVYYCIADQSREIRRSWGQGTLVTVSS[human IgG1 Fc with changes not printed]",tumor elimination,EBC-1 CDX; 3 mg/kg,completely eliminated
same,efficacy versus AZD9592,EBC-1 CDX; low dose (1 mg/kg),better efficacy than AZD9592
same,IC50,EBC-1,0.129 nM
same,IC50,NCI-H1975 [1],34 nM
same,efficacy versus positive control drugs,NCI-H1975 CDX,better efficacy than the positive control drugs
same,efficacy versus positive control drugs,SW48 CDX,better efficacy than the positive control drugs
same,binding to NCI-H1975 cells,NCI-H1975 [2],able to bind
same,in vivo tumor inhibition effect,CDX models,better in vivo tumor inhibition effect than the positive control drug
same,binding to MDA-MB-468 cells,MDA-MB-468,able to bind
same,efficacy versus positive control drugs,FADU CDX,better efficacy than the positive control drugs
